The results in this text go back to PubChem BioAssay AID1159614 (National Center for Advancing Translational Sciences (NCATS), 2016).

Hit rate of the full screen: of about 45,000 compounds, about 65 (0.1%) were called active. Calls follow the shape of the dose curve; as a rule, active = well fitted activation curve with a large enough effect; inconclusive = small, poorly fitted or top-dose-only effect; inactive = no such curve, though single readings can be large or run the other way. The list shows a part of the results.

Chain of UniProt P54803 (P54803 whole entry, looked up): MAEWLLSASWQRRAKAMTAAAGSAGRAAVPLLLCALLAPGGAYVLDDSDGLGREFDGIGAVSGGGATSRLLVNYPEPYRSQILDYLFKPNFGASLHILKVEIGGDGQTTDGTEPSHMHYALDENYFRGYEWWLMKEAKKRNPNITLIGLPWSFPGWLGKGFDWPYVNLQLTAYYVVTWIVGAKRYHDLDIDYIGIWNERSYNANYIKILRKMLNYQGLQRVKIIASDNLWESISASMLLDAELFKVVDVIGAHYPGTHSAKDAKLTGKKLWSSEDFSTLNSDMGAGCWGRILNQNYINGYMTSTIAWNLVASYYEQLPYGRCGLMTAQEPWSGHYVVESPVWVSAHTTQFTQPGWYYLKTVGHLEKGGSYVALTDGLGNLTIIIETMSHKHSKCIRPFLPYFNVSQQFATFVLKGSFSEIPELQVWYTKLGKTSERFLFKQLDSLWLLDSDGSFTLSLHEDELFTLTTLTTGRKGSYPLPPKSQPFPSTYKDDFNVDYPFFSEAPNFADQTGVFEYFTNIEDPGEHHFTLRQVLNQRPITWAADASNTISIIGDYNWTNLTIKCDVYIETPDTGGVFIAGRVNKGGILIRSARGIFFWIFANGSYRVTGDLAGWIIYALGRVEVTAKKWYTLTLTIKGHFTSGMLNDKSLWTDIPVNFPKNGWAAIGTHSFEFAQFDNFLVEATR

This assay addresses Galactocerebrosidase (Homo sapiens) (UniProt P54803). As to the kind of experiment: A Novel Cell-Based Assay to Identify Small Molecules for B -Galactocerebrosidase. Also: 0% is about no effect; nearly all actives have a fitted effect of over 65% in size. The note with it: 145M-Twi-hGALC-G270D cells (Twitcher mouse brain line with human GALC G270D), HMU-beta-Gal fluorescence, 48 h; series mostly up to 57.5 µM; activation: at the top concentration. The essentials:
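Fluorogenic HMU-b-Gal hydrolysis (0.1 mM final, pH 5.2 citrate-phosphate with 1 mg/mL sodium taurocholate; carbonate stop buffer) measures mutant GALC activity after compound treatment of live 145M-Twi Twitcher brain cells stably carrying human GALC-G270D, with wild-type GALC line alongside; activation sought.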
As for `C[C@@H](C1=C(CCN(C)C)Cc2ccccc21)c1ccccn1`, the “activation” value is inactive: -15.5%.
As to `CC1CN(C(=O)CCC(=O)Nc2cc(F)ccc2F)c2ccccc2S1` (stereo unspecified), the “activation” value was inactive: -15.6%.
For the molecule `O=C(O)c1c(O)c(-c2ccccc2)nc2ccccc12`, the “activation” value was inactive: -13.8%.
For the molecule `Cc1ccc(CNc2oc(-c3ccc(COc4ccc(C)cc4)o3)nc2C#N)cc1`, the “activation” value was inactive: -12.2%.
On to `CCCOc1ccc(C(=O)NCC2OCCc3ccccc32)cc1` (stereo unspecified), for which the “activation” value was inactive: -14.4%.
As for `Cc1ccc(NC(=O)c2c(C)nc3sc(C(=O)Nc4ccc(F)cc4)c(N)c3c2-c2ccc(C)o2)c(C)c1`, the “activation” value is inactive: -13.5%.
Consider `CCc1ccc(CNC(=O)c2cc3ccccn3n2)cc1`, for which the “activation” value is inactive: -20.2%.
Consider `CCOC(=O)C1CCCN(C(=O)Cn2ncc3c(C)n(Cc4ccccc4Cl)c(C)c3c2=O)C1` (stereo unspecified), for which the “activation” value is inactive: -1.43%.
`CCCc1nc2ccccc2n1CC(O)COc1ccc(C(=O)OC)cc1` (stereo unspecified): the “activation” value is inactive: -30.7%.
For `COc1ccc(C(=O)Nc2ccc3oc(-c4ccc(F)cc4Cl)nc3c2)cc1`, the “activation” value is inactive: 9.19%.
Regarding `COc1ccc(-n2c(SCC(=O)N3CCc4ccccc43)nc3c([nH]c4ccccc43)c2=O)cc1`, the “activation” value was inactive: -18.5%.
For the molecule `COc1ccccc1CNc1cc(C)nc2nc(-c3ccc(C)cc3)nn12`, the “activation” value is inactive: -25.4%.
As for `COc1ccc(-c2nc(C)c(CCNC(=O)c3cccs3)s2)cc1OC`, the “activation” value was inactive: -24.9%.
Consider `CC(C)(C)OC(=O)N1CCC(c2c(C(=O)N3CCN(c4ccccn4)CC3)cnn2-c2ccccc2)CC1`, for which the “activation” value is inactive: -7.25%.
Still for that read-out and setting: the same measure for `Cc1ccc2nc(NC(=O)CSc3nccn3-c3ccc(Cl)cc3)sc2c1`: inactive: -16%; for `CCN(CCCc1ccccc1)CCCc1ccccc1`: inactive: -19.4%.
Take `O=C(CSc1nnc(-c2ccccc2F)o1)Nc1cccc(C(F)(F)F)c1`: the “activation” value was inactive: -10%.
Same read-out and setting: the same measure for `O=C(Nc1ccc(Cl)cc1F)c1cnc2sc(N3CCOCC3)nn2c1=O`: inactive: -13.4%; for `CCC1CCCCN1S(=O)(=O)c1ccc(C(=O)Nc2sc3c(c2C(N)=O)CCC3)cc1` (stereo unspecified): inactive: -32.8%; for `COc1ccc(C2C(C(=O)Nc3ccc(Cl)cc3)=C(C)Nc3nc(SCc4cccc(C)c4)nn32)cc1OC` (stereo unspecified): inactive: 2.45%.
As to `COCCCN1C(=O)c2ccccc2CC1(C)C(=O)NC1CCCCC1` (stereo unspecified), the “activation” value was inactive: -6.59%.
Consider `Cc1cccc(Cn2c(SCc3ccc(C(=O)NCc4ccccc4F)cc3)nc3ccncc32)c1`, for which the “activation” value was inactive: -9.34%.
`Cc1ccc(NC(=O)Cn2c(=O)oc3cc(S(=O)(=O)N4CCCCC4)ccc32)c(Cl)c1`: the “activation” value was inactive: -39.1%.
`c1ccc(-c2noc(-c3cccnc3NCc3ccco3)n2)cc1`: the “activation” value is inactive: -0.894%.
For `COCCNC(=O)Cn1c(=O)n(CCCCCC(=O)NCc2ccccc2Cl)c(=O)c2sccc21`, the “activation” value was inactive: -23%.
Consider `COc1ccc(CN(C(=O)c2cc3ccccc3oc2=O)C2CCS(=O)(=O)C2)cc1OC` (stereo unspecified), for which the “activation” value was inactive: -20.8%.
As for `CC(C)(C)C1CCc2c(sc3nc(-c4cc5ccccc5oc4=O)[nH]c(=O)c23)C1` (stereo unspecified), the “activation” value is inactive: -15.8%.
Same read-out and setting: next, `Cc1c(-c2cccc(NC(=O)Nc3ccc(Cl)cc3)c2)nc2ncccn12`: inactive: -10.6%.
`COc1ccccc1-c1noc(-c2ccc(NC3CCCCC3)c([N+](=O)[O-])c2)n1`: the “activation” value is inactive: 4.2%.
Still for that read-out and setting: the same measure for `CC1CCCCN1C(=O)Cn1ncc2c3ccccc3n(Cc3ccccc3F)c2c1=O` (stereo unspecified): inactive: -10.6%; for `CCN(CC)CCCNC(=O)CCCn1ncn2c(cc3occc32)c1=O`: inactive: -3.72%.
Consider `O=c1c(=O)n(Cc2ccc(Cl)cc2)ccn1Cc1ccc(F)cc1`, for which the “activation” value was inactive: 19.3%.
As for `COCCCNC(=O)c1cnc2sc(N3CCCCCC3)nn2c1=O`, the “activation” value was inactive: -4.4%.
In the case of `Cc1ccc2c(c1)-c1c(cnn1CC(=O)N1CCN(c3ccccc3F)CC1)CO2`, the “activation” value was inactive: -8.69%.
For the molecule `CCCCN(CCCNC(=O)CN1N=C(c2ccc(C)cc2)CCC1=O)c1ccccc1`, the “activation” value was inactive: -2.17%.
In the case of `COc1cccc(NC(=O)CCc2nc3c(C)nn(-c4ccc(C)cc4)c3n(C)c2=O)c1`, the “activation” value was inactive: -18.2%.
With `CCN(CC)C(=O)CSc1nc2ccsc2c(=O)n1Cc1ccccc1Cl`, the “activation” value was inactive: -35.5%.
Turning to `CCc1nc2cccnc2n1-c1ccc(CC(=O)Nc2c(C)cccc2C)cc1`, the “activation” value is inactive: -4.07%.
Same read-out and setting: the same measure for `Cc1cc(C)n2c(Nc3ccc(C(C)C)cc3)c(-c3ccsc3)nc2n1`: inactive: -10.4%.
As for `Cc1oc2ncn(CC(C)C)c(=O)c2c1C(=O)NCCc1ccccc1`, the “activation” value is inactive: -34.7%.
Regarding `COc1cccc(OCC(=O)NCCS(=O)(=O)N2CCN(c3ccccc3F)CC2)c1`, the “activation” value was inactive: -4.51%.
On the same count and under the same terms, the same measure for `COc1ccc(-c2cn3cccnc3n2)cc1NC(=O)Cc1ccccc1`: inactive: -18.4%; for `Cc1ccc(-c2nc(CNC(=O)Nc3ccccc3)c(C)o2)cc1`: inactive: 0.629%.
Take `CCOc1ccc(CNC(=O)CC(C)n2nc(C)cc2C)cc1OC` (stereo unspecified): the “activation” value is inactive: -25.2%.
Consider `Cc1ccc2c(c1)c1c(c(=O)n(-c3ccccc3)c(=O)n1CC(=O)c1ccc(F)cc1)n2C`, for which the “activation” value was inactive: -13.3%.
Take `CC1=C(C(=O)Nc2ccc(C)cc2C)C(c2ccc(C(=O)O)cc2)n2nc(SCc3ccccc3)nc2N1` (stereo unspecified): the “activation” value was inactive: -6.5%.
For the molecule `COc1ccc(OC)c(CNC(=O)c2cnc3c(C)cccn3c2=O)c1`, the “activation” value is inactive: -15.2%.
In the case of `CCc1cccc(NC(=O)Cn2c(=O)n(-c3cccc(Cl)c3)c(=O)c3c2c2cc(C)ccc2n3C)c1`, the “activation” value was inactive: 3.51%.
As to `Cn1c(SCC(=O)N2CCCc3ccccc32)ncc(C(=O)Nc2ccccc2)c1=O`, the “activation” value is inactive: -35.4%.
Consider `CCc1nn2c(=O)cc(COC(=O)c3ccc(NC(=O)COc4ccc(C)cc4)cc3)nc2s1`, for which the “activation” value is inactive: -13.2%.
For the molecule `Cc1ccc(NC(=O)c2ccc(CN3CC(=O)N4CCCCC4C3=O)cc2)cc1` (stereo unspecified), the “activation” value was inactive: -18.4%.
Turning to `Cc1ccccc1C(=O)Nc1cccc(C(=O)OCc2cc(=O)n3ccsc3n2)c1`, the “activation” value is inactive: -19.9%.
`Cc1ccc2[nH]c(=O)c(CN(C(=O)c3cccc(Cl)c3)C(C)(C)C)cc2c1`: the “activation” value was inactive: -11.2%.
As for `CSc1ccc(Cn2nnc(C(=O)Nc3ccc(C)cc3Cl)c2N)cc1`, the “activation” value was inactive: 26%.
Regarding `Cc1ccc(C(=O)COC(=O)C(Cc2c[nH]c3ccccc23)NC(=O)c2ccc(C(C)(C)C)cc2)cc1` (stereo unspecified), the “activation” value is inactive: -16.3%.
For `CC[C@]1(O)C[C@@H]2CN(CCc3c([nH]c4ccccc34)[C@@](C(=O)OC)(c3cc4c(cc3OC)N(C)[C@H]3[C@@](O)(C(=O)OC)[C@H](OC(C)=O)[C@]5(CC)C=CCN6CC[C@]43[C@@H]65)C2)C1`, the Potency entry was “inactive”.
Turning to `CCN(c1ccccc1)S(=O)(=O)c1ccc(-c2cc(C)no2)s1`, the “activation” value was inactive: -6.96%.
As for `CCOC(=O)C(C)Sc1nc(-c2ccccc2Cl)cc(-c2ccccc2)c1C#N` (stereo unspecified), the “activation” value was inactive: -11.9%.
Turning to `Cc1cc(C)cc(NC(=O)CSc2nc(=O)n(Cc3ccccn3)c3c2CCC3)c1`, the “activation” value was inactive: -9.06%.
As to `CC(C)CC(=O)Nc1cc(-c2ccccc2F)nn1-c1ccccc1`, the “activation” value is inactive: -14%.
Regarding `Cc1cccc(C)c1OCc1cc(=O)n2c3c(sc2n1)CCCC3`, the “activation” value was inactive: -21.1%.
